From the supplement of paper PMC4967469
A lower IC50 marks a more sensitive line; where the fit passes the top or lowest dose, that dose stands as a limit. AUC sums up the same curve from the lowest dose to the 256-fold higher top dose; values near 1 show little effect. For some assays here: A top dose marked as inferred comes from the curve model; the source does not state it. For some assays here: Drugs with an entry number were screened twice under separate entries, and the two screens often disagree.

Experiments:
Assay in all cases: Viability of human cancer cell lines after 72 h of drug (GDSC screen)
[1] = compound: C=CCc1cccc(/C=N/NC(=O)CN2CCN(Cc3ccccc3)CC2)c1O [PAC-1]; conditions: top dose 2.56 µM
Protocol: (§1)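 Human cancer cell lines in 384-well plates, medium with 10% serum, drug for 72 h over a 256-fold dose range (nine 2-fold or five 4-fold steps up to the top dose). Adherent lines were fixed and stained with the nucleic acid dye Syto60, suspension lines read with resazurin; signal relative to control wells, capped at 0 and 100%. One two-parameter sigmoid per drug and line, fitted in a mixed model over all curves with the slope shared within a line.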

[2] = compound: C=C1C(=O)O[C@H]2[C@H]1CC/C(C)=C/CC[C@@]1(C)O[C@@H]21 [Parthenolide]; conditions: top dose 5 µM
Protocol: as §1

[3] = compound: COc1cc2ncn(-c3cc(OCc4ccccc4S(C)(=O)=O)c(C#N)s3)c2cc1OC [KIN001-135]; conditions: top dose 5 µM; top dose inferred
Protocol: as §1

[4] = compound: NC(=O)[C@@H](CCC(F)(F)F)N(Cc1ccc(-c2ncon2)cc1F)S(=O)(=O)c1ccc(Cl)cc1 [BMS-708163]; conditions: top dose 5 µM; screen: GDSC drug entry 1072; top dose inferred
Protocol: as §1

Cell Line | AUC [1] | IC50 [1] | AUC [2] | IC50 [2] | AUC [3] | IC50 [3] | AUC [4] | IC50 [4]
OCI-AML5 (acute myeloid leukaemia, suspension) | 0.984 | > 2.56 µM | 0.869 | 3.93 µM | 0.986 | > 5 µM | 0.985 | > 5 µM
LU-65 (large cell lung carcinoma, suspension) | 0.982 | > 2.56 µM | 0.943 | > 5 µM | 0.974 | > 5 µM | 0.987 | > 5 µM
IST-MES1 (mesothelioma, adherent) | 0.987 | > 2.56 µM | 0.985 | > 5 µM | 0.988 | > 5 µM | 0.988 | > 5 µM
MHH-PREB-1 (B-cell leukaemia, suspension) | 0.905 | > 2.56 µM | 0.849 | 3.17 µM | 0.984 | > 5 µM | 0.978 | > 5 µM
EC-GI-10 (oesophagus, adherent) | 0.989 | > 2.56 µM | 0.987 | > 5 µM | 0.986 | > 5 µM | 0.976 | > 5 µM
RH-1 (rhabdomyosarcoma, adherent) | 0.934 | > 2.56 µM | 0.991 | > 5 µM | 0.991 | > 5 µM | 0.992 | > 5 µM
REH (B-cell leukaemia, suspension) | 0.76 | 0.866 µM | 0.933 | > 5 µM | 0.987 | > 5 µM | 0.979 | > 5 µM
LC4-1 (lymphoblastic leukaemia, suspension) | 0.926 | > 2.56 µM | 0.976 | > 5 µM | 0.984 | > 5 µM | 0.984 | > 5 µM
GT3TKB (stomach, adherent) | 0.987 | > 2.56 µM | 0.99 | > 5 µM | 0.99 | > 5 µM | 0.99 | > 5 µM
NCI-H1581 (large cell lung carcinoma, semi-adherent) | 0.989 | > 2.56 µM | 0.989 | > 5 µM | 0.981 | > 5 µM | 0.976 | > 5 µM
ROS-50 (B-cell leukaemia, suspension) | 0.918 | > 2.56 µM | 0.981 | > 5 µM | 0.985 | > 5 µM | 0.984 | > 5 µM
MV-4-11 (leukaemia, suspension) | 0.96 | > 2.56 µM | 0.866 | 3.18 µM | 0.983 | > 5 µM | 0.99 | > 5 µM
KM12 (large intestine, adherent) | 0.949 | > 2.56 µM | 0.843 | 4.01 µM | 0.983 | > 5 µM | 0.912 | > 5 µM
LAN-6 (neuroblastoma, adherent) | 0.938 | > 2.56 µM | 0.911 | > 5 µM | 0.98 | > 5 µM | 0.984 | > 5 µM
KARPAS-299 (anaplastic large cell lymphoma, suspension) | 0.982 | > 2.56 µM | 0.992 | > 5 µM | 0.99 | > 5 µM | 0.992 | > 5 µM
NALM-6 (B-cell leukaemia, suspension) | 0.731 | 0.636 µM | 0.877 | 3.64 µM | 0.99 | > 5 µM | 0.991 | > 5 µM
LB771-HNC (head and neck, adherent) | 0.981 | > 2.56 µM | 0.981 | > 5 µM | 0.976 | > 5 µM | 0.982 | > 5 µM
EB-3 (Burkitt lymphoma, suspension) | 0.885 | > 2.56 µM | 0.95 | > 5 µM | 0.983 | > 5 µM | 0.984 | > 5 µM
NCI-H69 (small cell lung carcinoma, suspension) | 0.948 | > 2.56 µM | 0.985 | > 5 µM | 0.981 | > 5 µM | 0.986 | > 5 µM
NCI-H524 (small cell lung carcinoma, suspension) | 0.99 | > 2.56 µM | 0.847 | 3.12 µM | 0.984 | > 5 µM | 0.99 | > 5 µM

Cell Line | AUC [1] | IC50 [1] | AUC [2] | IC50 [2] | AUC [3] | IC50 [3] | AUC [4] | IC50 [4]
MLMA (hairy cell leukaemia, semi-adherent) | 0.948 | > 2.56 µM | 0.855 | 4.04 µM | 0.975 | > 5 µM | 0.981 | > 5 µM
DEL (lymphoid neoplasm, suspension) | 0.927 | > 2.56 µM | 0.79 | 1.73 µM | 0.993 | > 5 µM | 0.986 | > 5 µM
ALL-SIL (T-cell leukaemia, suspension) | 0.675 | 0.455 µM | 0.787 | 1.85 µM | 0.989 | > 5 µM | 0.974 | > 5 µM
NEC8 (testis, adherent) | 0.922 | > 2.56 µM | 0.903 | 4.86 µM | 0.99 | > 5 µM | 0.939 | > 5 µM
MEG-01 (chronic myeloid leukaemia, suspension) | 0.956 | > 2.56 µM | 0.957 | > 5 µM | 0.986 | > 5 µM | 0.988 | > 5 µM
SH-4 (melanoma, adherent) | 0.973 | > 2.56 µM | 0.912 | > 5 µM | 0.925 | > 5 µM | 0.947 | > 5 µM
OCUB-M (breast, adherent) | 0.981 | > 2.56 µM | 0.91 | > 5 µM | 0.983 | > 5 µM | 0.988 | > 5 µM
NCI-H1155 (large cell lung carcinoma, suspension) | 0.993 | > 2.56 µM | 0.972 | > 5 µM | 0.988 | > 5 µM | 0.991 | > 5 µM
HEL (acute myeloid leukaemia, semi-adherent) | 0.855 | 1.52 µM | 0.805 | 2.04 µM | 0.968 | > 5 µM | 0.992 | > 5 µM
NAMALWA (Burkitt lymphoma, suspension) | 0.904 | 2.46 µM | 0.926 | > 5 µM | 0.985 | > 5 µM | 0.991 | > 5 µM
BV-173 (chronic myeloid leukaemia, suspension) | 0.913 | > 2.56 µM | 0.956 | > 5 µM | 0.982 | > 5 µM | 0.989 | > 5 µM
BE-13 (lymphoblastic leukaemia, suspension) | 0.884 | 2.45 µM | 0.987 | > 5 µM | 0.987 | > 5 µM | 0.982 | > 5 µM
CMK (acute myeloid leukaemia, suspension) | 0.85 | 1.51 µM | 0.886 | 4.06 µM | 0.989 | > 5 µM | 0.989 | > 5 µM
NOMO-1 (acute myeloid leukaemia, suspension) | 0.951 | > 2.56 µM | 0.981 | > 5 µM | 0.976 | > 5 µM | 0.982 | > 5 µM
A253 (head and neck, adherent) | 0.977 | > 2.56 µM | 0.989 | > 5 µM | 0.989 | > 5 µM | 0.973 | > 5 µM
SK-LMS-1 (soft tissue, adherent) | 0.978 | > 2.56 µM | 0.859 | 3.81 µM | 0.987 | > 5 µM | 0.987 | > 5 µM
ETK-1 (biliary tract, adherent) | 0.871 | > 2.56 µM | 0.981 | > 5 µM | 0.977 | > 5 µM | 0.97 | > 5 µM
LOUCY (T-cell lymphoblastic leukaemia, suspension) | 0.781 | 0.863 µM | 0.875 | 3.43 µM | 0.988 | > 5 µM | 0.992 | > 5 µM
HA7-RCC (kidney, adherent) | 0.959 | > 2.56 µM | 0.981 | > 5 µM | 0.984 | > 5 µM | 0.979 | > 5 µM
NB10 (neuroblastoma, adherent) | 0.962 | > 2.56 µM | 0.771 | 1.87 µM | 0.815 | 2.67 µM | 0.982 | > 5 µM

Cell Line | AUC [1] | IC50 [1] | AUC [2] | IC50 [2] | AUC [3] | IC50 [3] | AUC [4] | IC50 [4]
NCI-H2135 (non-small cell lung carcinoma, adherent) | 0.989 | > 2.56 µM | 0.985 | > 5 µM | 0.987 | > 5 µM | 0.984 | > 5 µM
ES-2 (ovary, adherent) | 0.955 | > 2.56 µM | 0.99 | > 5 µM | 0.991 | > 5 µM | 0.991 | > 5 µM
LS-123 (large intestine, adherent) | 0.928 | > 2.56 µM | 0.974 | > 5 µM | 0.982 | > 5 µM | 0.963 | > 5 µM
RPMI-8402 (T-cell lymphoblastic leukaemia, suspension) | 0.822 | 1.19 µM | 0.962 | > 5 µM | 0.99 | > 5 µM | 0.941 | > 5 µM
no-10 (glioma, adherent) | 0.967 | > 2.56 µM | 0.711 | 1.42 µM | 0.881 | > 5 µM | 0.959 | > 5 µM
JiyoyeP-2003 (Burkitt lymphoma, suspension) | 0.796 | 1.03 µM | 0.94 | > 5 µM | 0.989 | > 5 µM | 0.99 | > 5 µM
OCI-AML3 (acute myeloid leukaemia, suspension) | 0.991 | > 2.56 µM | 0.991 | > 5 µM | 0.99 | > 5 µM | 0.991 | > 5 µM
NCI-H1417 (small cell lung carcinoma, suspension) | 0.841 | 2.29 µM | 0.976 | > 5 µM | 0.931 | > 5 µM | 0.84 | 4.45 µM
SLVL (B-cell lymphoma, suspension) | 0.879 | > 2.56 µM | 0.954 | > 5 µM | 0.978 | > 5 µM | 0.985 | > 5 µM
CTB-1 (B-cell lymphoma, suspension) | 0.819 | 2.21 µM | 0.865 | > 5 µM | 0.959 | > 5 µM | 0.979 | > 5 µM
MN-60 (B-cell leukaemia, suspension) | 0.973 | > 2.56 µM | 0.984 | > 5 µM | 0.988 | > 5 µM | 0.988 | > 5 µM
NCI-SNU-1 (stomach, suspension) | 0.959 | > 2.56 µM | 0.959 | > 5 µM | 0.985 | > 5 µM | 0.981 | > 5 µM
NCI-H209 (small cell lung carcinoma, suspension) | 0.914 | > 2.56 µM | 0.985 | > 5 µM | 0.967 | > 5 µM | 0.986 | > 5 µM
HH (T-cell leukaemia, suspension) | 0.872 | > 2.56 µM | 0.977 | > 5 µM | 0.978 | > 5 µM | 0.976 | > 5 µM
LP-1 (myeloma, suspension) | 0.977 | > 2.56 µM | 0.977 | > 5 µM | 0.993 | > 5 µM | 0.993 | > 5 µM
SK-UT-1 (soft tissue, adherent) | 0.975 | > 2.56 µM | 0.695 | 1.04 µM | 0.989 | > 5 µM | 0.925 | > 5 µM
DND-41 (T-cell leukaemia, suspension) | 0.745 | 0.724 µM | 0.941 | > 5 µM | 0.984 | > 5 µM | 0.941 | > 5 µM
TGW (neuroblastoma, adherent) | 0.976 | > 2.56 µM | 0.987 | > 5 µM | 0.992 | > 5 µM | 0.991 | > 5 µM
